Source: PMC4336329 (PLoS ONE, 2015)
In all, about 310,000 compounds went through this assay and about 2,200 (0.71%) showed an effect of 50% or more. Effects have a minus sign here. Some of the results follow.

target: human ether-à-go-go-related gene (hERG) potassium channel (human, UniProt Q12809); experiment: primary screen, population patch clamp on CHO cells stably expressing hERG
Sequence (Q12809 whole entry, looked up): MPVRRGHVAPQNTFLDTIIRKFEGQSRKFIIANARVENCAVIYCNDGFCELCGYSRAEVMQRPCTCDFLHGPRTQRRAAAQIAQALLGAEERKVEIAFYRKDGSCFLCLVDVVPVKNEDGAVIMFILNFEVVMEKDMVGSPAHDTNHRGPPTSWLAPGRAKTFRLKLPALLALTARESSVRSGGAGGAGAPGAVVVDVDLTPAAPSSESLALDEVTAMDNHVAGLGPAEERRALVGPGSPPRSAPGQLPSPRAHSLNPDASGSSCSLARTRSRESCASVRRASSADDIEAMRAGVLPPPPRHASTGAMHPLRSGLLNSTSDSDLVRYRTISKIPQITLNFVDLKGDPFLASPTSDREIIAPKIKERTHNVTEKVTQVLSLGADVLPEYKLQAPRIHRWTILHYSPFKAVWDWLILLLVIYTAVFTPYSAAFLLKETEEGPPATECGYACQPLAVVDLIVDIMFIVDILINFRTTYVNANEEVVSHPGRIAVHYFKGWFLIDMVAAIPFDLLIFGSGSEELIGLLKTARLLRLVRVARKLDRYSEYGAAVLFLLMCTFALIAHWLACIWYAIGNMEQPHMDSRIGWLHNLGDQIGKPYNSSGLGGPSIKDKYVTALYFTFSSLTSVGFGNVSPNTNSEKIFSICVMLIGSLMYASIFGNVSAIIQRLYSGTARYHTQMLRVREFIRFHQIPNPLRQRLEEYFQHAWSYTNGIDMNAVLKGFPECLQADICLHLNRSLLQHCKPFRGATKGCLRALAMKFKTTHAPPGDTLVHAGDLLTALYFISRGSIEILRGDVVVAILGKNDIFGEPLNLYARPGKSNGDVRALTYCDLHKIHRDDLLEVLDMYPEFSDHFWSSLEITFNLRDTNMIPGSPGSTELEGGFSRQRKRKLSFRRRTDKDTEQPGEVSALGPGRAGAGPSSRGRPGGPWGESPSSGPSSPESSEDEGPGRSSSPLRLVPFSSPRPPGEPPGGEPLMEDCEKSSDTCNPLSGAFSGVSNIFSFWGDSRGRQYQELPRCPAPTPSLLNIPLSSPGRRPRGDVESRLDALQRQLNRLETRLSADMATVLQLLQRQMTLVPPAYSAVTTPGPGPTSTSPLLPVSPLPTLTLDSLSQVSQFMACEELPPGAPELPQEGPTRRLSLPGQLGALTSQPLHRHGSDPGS

| Structure (SMILES) | hERG current change (%, negative = inhibition) at 1uM [%] |
| --- | --- |
| CCCCC/C(=N\O)c1c[nH]c2ccccc12 | 9.08 |
| CCN(CC)CCC(c1cc(OC)c(OC)c(OC)c1)c1c(OC)cc(OC)c2c(-c3ccccc3)cc(=O)oc12 (stereo not shown) | 9.21 |
| Nc1nc(NCc2ccccc2)nc(Nc2cccc(F)c2)c1[N+](=O)[O-] | 14.2 |
| O=C(CCNc1ccc(F)cc1)c1ccco1 | -1.63 |
| Cc1ccccc1S(=O)(=O)Nc1ncnc2scc(-c3ccccc3)c12 | -1.91 |
| O=C(CCN1C(=O)c2ccccc2C1=O)C1=NN[C@@H]2C(=O)N(c3ccc4c(c3)OCO4)C(=O)[C@H]12 | 4.83 |
| Cc1cc(OC(C)C(=O)NCCCn2ccnc2)c2c(C)cc(=O)oc2c1 (stereo not shown) | 9.26 |
| CCCNC(=O)C(=O)NCc1ccccn1 | 0.253 |
| COc1ccc(CCNC(=O)c2c[nH]c3ccccc3c2=O)cc1OC | 3.65 |
| CC(C)(C)c1cc(=O)n2c(nc3ccccc32)[nH]1 | 13.8 |
| CCOC(=O)c1ccc(NC(=O)CCC(=O)OC)cc1 | 12.6 |
| CC(NS(=O)(=O)c1ccc(OCC(=O)Nc2cccc([N+](=O)[O-])c2)cc1)c1ccccc1 (stereo not shown) | 10.9 |
| O=C(c1ccc(COc2ccccc2Br)cc1)N1CCCCCC1 | 6.28 |
| O=C(Oc1ccccc1C(=O)Nc1ccccc1)c1ccc(Br)c([N+](=O)[O-])c1 | 8.43 |
| COc1ccc(C[C@@H]2CN3C(=NC[C@@H]3C)N2CCNC(=O)c2ccc(C)c(Br)c2)cc1 | -64.9 |
| CC(C)C(=O)Nc1cccc(NC(=S)NC(=O)c2cccs2)c1 | 1.16 |
| Cc1nc(C(=O)NCC(=O)c2ccccc2)c(C(F)(F)F)o1 | 13.1 |
| Cc1ccc(N2CC(C(=O)Nc3nc4ccc(S(C)(=O)=O)cc4s3)CC2=O)cc1C (stereo not shown) | 11.1 |
| COc1ccc(OC)c(/C=N/NC(=O)c2ccc[n+](CC(=O)c3ccccc3)c2)c1 | 11 |
| Cc1ccc(S(=O)(=O)c2cn(C)c3cc(N4CCN(C)CC4)c(F)cc3c2=O)c(C)c1 | 14 |
| Cc1ccc(C)c(NS(=O)(=O)c2ccc3c(c2)NC(=O)CCS3)c1 | 7.34 |
| CC1CCCC(C)N1C(=O)CSc1nnc(NC(=O)c2cccs2)s1 (stereo not shown) | 18.3 |
| COc1cc(Cl)c(C)cc1NC(=O)COc1ccccc1[N+](=O)[O-] | -2.79 |
| O=S(=O)(Nc1nc2ccc(S(=O)(=O)N3CCCC3)cc2s1)c1ccc(F)cc1 | -8.34 |
| COc1ccccc1-c1cc(C(=O)N2CCCc3ccccc32)no1 | 6.64 |
| O=C(CNC(=O)c1ccco1)NCC(=O)OCc1cccc(Cl)c1 | -2.91 |
| CCCCc1nnc(NC(=O)C2CC(=O)N(c3ccc(C)cc3)C2)s1 (stereo not shown) | 12.8 |
| O=C(Cc1cnn(-c2ccccc2)c1)c1ccc(O)c(O)c1O | 0.139 |

| Structure (SMILES) | hERG current change (%, negative = inhibition) at 1uM [%] |
| --- | --- |
| Cc1ccc(C(=O)Nc2ccccc2C(=O)N2CCN(c3ccccc3)CC2)cc1 | 15.5 |
| Cc1cccc(C)c1NC(=O)Cc1cccs1 | 12.6 |
| O=C(CSCc1ccc([N+](=O)[O-])cc1)NC1CCCCCC1 | -4.32 |
| Clc1ccc2nc(CSc3nncn3-c3ccccc3)cn2c1 | 11.3 |
| COc1ccc(OC)c(S(=O)(=O)NCc2cn3cccc(C)c3n2)c1 | 9.59 |
| CN(CC(=O)NCC1CCCCC1)CC(=O)Nc1ccc(F)cc1 | -1.41 |
| CC(c1ccco1)N(C(=O)c1ccccc1NS(=O)(=O)c1cccc([N+](=O)[O-])c1)c1ccccn1.Cl (stereo not shown) | 5.36 |
| Cc1[nH]c2ccccc2c1/C=N/NC(=O)C1CC1(c1ccccc1)c1ccccc1 (stereo not shown) | 3.97 |
| COc1ccccc1OCCC(=O)NCc1ccc2c(c1)OCO2 | 6.42 |
| O=C(/C=C/c1ccc(F)cc1)NCCC1=CCCCC1 | -1.02 |
| CCc1ccc(NS(=O)(=O)c2cc3c4c(c2)CCN4C(=O)CC3)cc1 | 3.86 |
| CC(C)COP(=O)(c1ccc(N(C)C)cc1)C(O)c1ccccc1 (stereo not shown) | 19.4 |
| CC(=O)N1C(=O)/C(=C2\SC(=S)N(NC(=O)c3ccc(O)cc3)C2=O)c2ccccc21 | 6.63 |
| COc1ccc(S(=O)(=O)N(C)CC(=O)NCc2ccc3c(c2)OCO3)cc1 | 7.58 |
| CC(C)c1ccc(Nc2nc(Cl)nc(NCCO)n2)cc1 | 7.67 |
| COc1cccc(N2CCN(CC(=O)Nc3ccc(SC(F)F)cc3)CC2)c1 | -27.7 |
| Cl.Oc1cccc(C(O)CNCc2ccc(OCc3ccc(Cl)cc3Cl)cc2)c1 (stereo not shown) | 14.8 |
| CCN(CC)C(=O)c1ccc(NC(=O)c2cccc(F)c2)cc1 | -2.92 |
| c1ccc(Cn2nc(-c3ccccc3)nc2-c2ccccc2)cc1 | 12 |
| CCOc1ccccc1C1C(C#N)=C(N)Oc2cc(C)n(Cc3ccccn3)c(=O)c21 (stereo not shown) | -2.67 |
| COc1ccc(NC(=O)c2ccc(NS(=O)(=O)c3c(C)noc3C)cc2)cc1OC | 24.5 |
| CO/N=C/Cc1c([N+](=O)[O-])c(C)nn1C | 13.7 |
| COc1ccc2cc(C#N)c(N3CCN(Cc4nnnn4CCC(C)C)CC3)nc2c1 | 2.57 |
| CC(Oc1ccccc1)C(=O)N/N=C/c1ccccn1 (stereo not shown) | 1.86 |
| N#CCCn1cc(C(CC(=O)c2ccccc2)C(=O)O)c2ccccc21 (stereo not shown) | 16.8 |
| CCCOC(c1ccccc1)(c1ccccc1)C(Oc1nc(C)cc(C)n1)C(=O)O (stereo not shown) | 14.5 |
| Cc1c[nH]c2cccc(OCC(CNC(C)(C)C)OC(=O)c3ccccc3)c12.Cl (stereo not shown) | 17.4 |
